Experimental data published in article PMC4336329 (PLoS ONE, 2015).
About 2,200 (0.71%) of roughly 310,000 compounds showed an effect of 50% or more. The effect is printed as a negative number. Some of the results follow.

Molecular target: human ether-à-go-go-related gene (hERG) potassium channel (human, UniProt Q12809)
Assay: primary screen, population patch clamp on CHO cells stably expressing hERG

Chain of human ether-à-go-go-related gene (hERG) potassium channel (Q12809 whole entry, looked up): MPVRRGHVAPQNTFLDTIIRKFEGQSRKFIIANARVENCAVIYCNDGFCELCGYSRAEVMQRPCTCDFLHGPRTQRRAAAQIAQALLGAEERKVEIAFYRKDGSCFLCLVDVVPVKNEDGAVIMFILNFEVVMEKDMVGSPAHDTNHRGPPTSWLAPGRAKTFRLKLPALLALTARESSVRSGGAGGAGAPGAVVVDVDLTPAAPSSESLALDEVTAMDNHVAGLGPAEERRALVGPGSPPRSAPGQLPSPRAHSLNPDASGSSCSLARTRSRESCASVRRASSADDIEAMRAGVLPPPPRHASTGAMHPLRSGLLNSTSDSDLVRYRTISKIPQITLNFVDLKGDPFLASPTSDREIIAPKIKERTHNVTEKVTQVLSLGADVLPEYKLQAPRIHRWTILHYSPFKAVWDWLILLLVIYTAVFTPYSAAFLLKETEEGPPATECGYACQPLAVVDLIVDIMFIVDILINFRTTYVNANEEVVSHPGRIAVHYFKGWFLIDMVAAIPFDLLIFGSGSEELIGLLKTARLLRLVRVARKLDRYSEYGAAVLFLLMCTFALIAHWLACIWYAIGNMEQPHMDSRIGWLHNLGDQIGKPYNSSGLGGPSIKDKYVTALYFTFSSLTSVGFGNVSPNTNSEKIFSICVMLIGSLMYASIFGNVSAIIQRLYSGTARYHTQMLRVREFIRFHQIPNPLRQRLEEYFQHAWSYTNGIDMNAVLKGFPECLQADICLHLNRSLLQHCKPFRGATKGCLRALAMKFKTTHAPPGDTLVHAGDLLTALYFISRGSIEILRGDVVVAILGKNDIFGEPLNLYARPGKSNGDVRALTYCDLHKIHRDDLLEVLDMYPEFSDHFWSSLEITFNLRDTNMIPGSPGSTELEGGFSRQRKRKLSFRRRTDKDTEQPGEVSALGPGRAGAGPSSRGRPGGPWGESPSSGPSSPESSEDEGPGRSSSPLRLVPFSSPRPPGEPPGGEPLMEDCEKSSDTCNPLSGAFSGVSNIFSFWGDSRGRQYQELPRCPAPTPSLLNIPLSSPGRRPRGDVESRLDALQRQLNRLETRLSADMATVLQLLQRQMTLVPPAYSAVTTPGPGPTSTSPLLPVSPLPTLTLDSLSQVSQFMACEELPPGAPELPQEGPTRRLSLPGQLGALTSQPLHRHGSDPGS

Structure (SMILES)	hERG current change (%, negative = inhibition) at 1uM
CCCCCC(=O)Nc1nc(C)c(-c2csc(Nc3cc(Cl)ccc3C)n2)s1	25.3%
Cc1ccccc1-c1nc2sc3c(c2c(=O)n1N)CCCC3	2.25%
Cc1cccc(NC(=O)CCS(=O)(=O)c2ccc(Cl)cc2)c1	5.06%
CN1CCC(N(C)CC(C)(C)NS(=O)(=O)c2ccccc2)CC1.Cl	0.229%
O=C(C[n+]1ccc(/C=N/O)cc1)NC1CCCCC1.[Cl-]	9.12%
O=C(/C=C/c1cccc([N+](=O)[O-])c1)OCC1CCCO1 (stereo not drawn)	13.3%
Cc1ccc(-c2noc(C3CCN(S(C)(=O)=O)CC3)n2)o1	-10%
C/C(=N\NC(=O)c1nn(C)c(C)c1Br)c1ccc(NC(=O)c2ccoc2C)cc1	10.1%
CCO/C=N/Nc1nc(C(F)(F)F)nc2c1cnn2Cc1ccccc1	12.7%
CC(C)(C)c1cc(/C=N/NC(=O)C[n+]2ccccc2)cc(C(C)(C)C)c1O.[Cl-]	23.4%
Cn1c(CC(=O)Nc2ccc(Cl)c(Cl)c2)n[nH]c1=S	8.62%
Cc1cccc(NC(=O)c2ccc3c(=O)n(CC4CCCO4)c(=S)[nH]c3c2)c1 (stereo not drawn)	16.4%
COc1cc(-c2nnc(COc3ccc(Cl)cc3C)o2)cc(OC)c1OC	-1.37%
COc1ccc(-c2nn(-c3ccccc3)cc2C(=O)N2CCN(S(=O)(=O)c3ccccc3C#N)CC2)cc1	-6.64%
COc1cccc(N(CC(=O)N2CCCCCC2)S(C)(=O)=O)c1	15.7%
COC(=O)c1ccc(CN2C(=O)NC(CC(C)C)C2=O)cc1 (stereo not drawn)	10.5%
COc1ccc(C)cc1S(=O)(=O)NCCC1=CCCCC1	-0.114%
Cc1c(C(=O)Nc2cccnc2Cl)oc2ccccc12	11.6%
O=C(Nc1ccc(F)cc1F)c1cc2nc3c(c(C(F)(F)F)n2n1)CCCC3	0.979%
CCCCNC(=O)c1nn2cc(Br)cnc2c1Br	-32.8%
Cc1ccc(N2CC(C(=O)N3CCC(C(=O)Nc4cccc(Br)c4)CC3)CC2=O)cc1 (stereo not drawn)	-5.89%
CCN(c1ccccc1)S(=O)(=O)c1ccc(NC(=O)c2ccco2)cc1	6.73%
Cc1ccc(NC(=O)C(=O)Nc2ccccn2)cc1	10.2%
CC[N+](CC)(CC#Cc1ccccc1)CC(=O)c1ccc(Cl)cc1	-3.43%
